For test [1], the target named is T1, GST-AtPP2-B11 (Arabidopsis thaliana) (UniProt Q949S5).
T1 sequence: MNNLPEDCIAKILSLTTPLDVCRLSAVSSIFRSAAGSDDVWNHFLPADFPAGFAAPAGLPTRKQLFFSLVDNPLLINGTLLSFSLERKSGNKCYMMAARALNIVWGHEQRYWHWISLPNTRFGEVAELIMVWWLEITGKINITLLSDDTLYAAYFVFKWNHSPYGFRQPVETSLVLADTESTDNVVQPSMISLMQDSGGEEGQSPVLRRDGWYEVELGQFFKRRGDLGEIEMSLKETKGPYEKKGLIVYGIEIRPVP
Put plainly: pull-down; AtPP2-B11-GST held on GST beads, incubated with MBP-SnRK2s 2 h at room temperature or 4°C overnight; washed four times; anti-MBP blot; both purified.

The chains behind the UniProt entries cited, without tags or fusion partners.
UniProt Q9FHW7: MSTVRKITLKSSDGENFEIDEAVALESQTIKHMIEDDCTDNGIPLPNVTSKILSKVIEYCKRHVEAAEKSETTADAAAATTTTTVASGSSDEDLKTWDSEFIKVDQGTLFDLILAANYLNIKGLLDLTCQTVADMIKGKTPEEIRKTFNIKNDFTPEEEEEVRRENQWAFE
UniProt Q39255: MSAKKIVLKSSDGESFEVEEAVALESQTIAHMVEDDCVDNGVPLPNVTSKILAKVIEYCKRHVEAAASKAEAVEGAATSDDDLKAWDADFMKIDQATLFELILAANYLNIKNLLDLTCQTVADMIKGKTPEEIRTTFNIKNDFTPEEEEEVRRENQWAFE

In test [2] the target is ASK2 (Arabidopsis Skp1-like protein), yeast two-hybrid fusion (Arabidopsis thaliana) (UniProt Q9FHW7). Put plainly: two-hybrid; pairwise; AD (pGADT7) and BD (pGBKT7) constructs co-transformed into yeast AH109; growth on SD lacking Trp, Leu, His and Ade, 30°C, 3-5 days.
The target in test [3] is ASK1 (Arabidopsis Skp1-like protein), yeast two-hybrid fusion (Arabidopsis thaliana) (UniProt Q39255). The description is as above.
The target of test [4] is T2, SnRK2.3, yeast two-hybrid fusion (Arabidopsis thaliana) (UniProt Q39193).
T2 sequence: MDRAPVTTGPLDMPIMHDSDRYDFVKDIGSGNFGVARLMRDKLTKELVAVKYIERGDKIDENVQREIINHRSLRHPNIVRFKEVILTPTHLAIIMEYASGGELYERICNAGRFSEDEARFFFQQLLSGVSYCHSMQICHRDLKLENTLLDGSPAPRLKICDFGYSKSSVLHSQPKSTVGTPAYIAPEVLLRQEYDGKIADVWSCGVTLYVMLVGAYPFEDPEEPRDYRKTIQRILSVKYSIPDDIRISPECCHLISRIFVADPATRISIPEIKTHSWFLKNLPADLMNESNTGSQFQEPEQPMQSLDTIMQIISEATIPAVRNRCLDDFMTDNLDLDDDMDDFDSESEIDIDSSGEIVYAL
Described as above.

In test [5] the target is T3, SnRK2.3-YFP^C (Arabidopsis thaliana) (UniProt Q39193).
T3 sequence: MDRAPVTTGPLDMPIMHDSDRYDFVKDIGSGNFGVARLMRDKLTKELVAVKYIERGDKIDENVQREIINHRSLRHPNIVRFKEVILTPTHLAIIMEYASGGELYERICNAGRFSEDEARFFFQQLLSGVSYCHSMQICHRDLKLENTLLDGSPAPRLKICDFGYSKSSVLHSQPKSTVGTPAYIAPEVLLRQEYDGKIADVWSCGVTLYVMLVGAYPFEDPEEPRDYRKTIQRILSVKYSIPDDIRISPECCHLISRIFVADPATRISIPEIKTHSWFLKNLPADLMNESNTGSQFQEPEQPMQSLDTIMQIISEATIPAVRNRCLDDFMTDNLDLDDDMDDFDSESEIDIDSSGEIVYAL
The test is described as follows: split reporter; BiFC; YFP^N and YFP^C fusions co-expressed in N. benthamiana leaves by Agrobacterium infiltration; confocal imaging 36-48 h after infiltration.

The target in test [6] is ASK2-YFP^C (Arabidopsis thaliana) (UniProt Q9FHW7). Described as above.
In test [7] the target is ASK1-YFP^C (Arabidopsis thaliana) (UniProt Q39255). Described as above.
Test [8] addresses T4, SnRK2.3-FLAG (Arabidopsis thaliana) (UniProt Q39193).
T4 sequence: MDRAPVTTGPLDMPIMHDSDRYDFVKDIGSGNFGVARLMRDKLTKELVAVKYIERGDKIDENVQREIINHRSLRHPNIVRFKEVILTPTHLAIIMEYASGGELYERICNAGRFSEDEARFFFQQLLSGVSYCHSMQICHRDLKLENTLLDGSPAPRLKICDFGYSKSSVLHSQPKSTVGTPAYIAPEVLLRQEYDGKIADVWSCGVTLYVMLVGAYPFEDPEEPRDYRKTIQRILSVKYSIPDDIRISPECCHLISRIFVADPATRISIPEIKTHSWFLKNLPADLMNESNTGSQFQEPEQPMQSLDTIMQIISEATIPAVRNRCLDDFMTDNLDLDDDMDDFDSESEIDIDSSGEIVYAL
Put plainly: co-IP; stably transformed Arabidopsis seedlings (7-day-old in the legend, ten-day-old in the methods) with AtPP2-B11-Myc and SnRK2-Flag; extract incubated with anti-Flag M2 agarose, 4°C 2 h or room temperature 1 h; 150 mM NaCl, pH 7.4, Triton X-100; anti-Myc blot.

No constants are given. Whether binding was seen depends on the method and setting. For some assays here: In cells and extracts the contact can be indirect. Some entries that bind do so weakly or less than the wild type. Sequences can lack the tags named with a protein.

The record followed here is publication PMC5560758, “SCF^AtPP2-B11 modulates ABA signaling by facilitating SnRK2.3 degradation in Arabidopsis thaliana” (PLoS Genetics, 2017).

B1: MBP-SnRK2.2 (protein, UniProt Q39192 1-362)
chain: MDPATNSPIMPIDLPIMHDSDRYDFVKDIGSGNFGVARLMTDRVTKELVAVKYIERGEKIDENVQREIINHRSLRHPNIVRFKEVILTPSHLAIVMEYAAGGELYERICNAGRFSEDEARFFFQQLISGVSYCHAMQICHRDLKLENTLLDGSPAPRLKICDFGYSKSSVLHSQPKSTVGTPAYIAPEILLRQEYDGKLADVWSCGVTLYVMLVGAYPFEDPQEPRDYRKTIQRILSVTYSIPEDLHLSPECRHLISRIFVADPATRITIPEITSDKWFLKNLPGDLMDENRMGSQFQEPEQPMQSLDTIMQIISEATIPTVRNRCLDDFMADNLDLDDDMDDFDSESEIDVDSSGEIVYAL
With B1, in test [1], the binding entry is “no binding”.

B2: AtPP2-B11 (phloem protein 2-B11), yeast two-hybrid fusion (protein, UniProt Q949S5 1-257)
chain: MNNLPEDCIAKILSLTTPLDVCRLSAVSSIFRSAAGSDDVWNHFLPADFPAGFAAPAGLPTRKQLFFSLVDNPLLINGTLLSFSLERKSGNKCYMMAARALNIVWGHEQRYWHWISLPNTRFGEVAELIMVWWLEITGKINITLLSDDTLYAAYFVFKWNHSPYGFRQPVETSLVLADTESTDNVVQPSMISLMQDSGGEEGQSPVLRRDGWYEVELGQFFKRRGDLGEIEMSLKETKGPYEKKGLIVYGIEIRPVP
For the molecule B2, the binding entry in test [2], in test [3] and in test [4] was “binds” each time.

B3: AtPP2-B11-YFP^N (protein, UniProt Q949S5 1-257)
chain: MNNLPEDCIAKILSLTTPLDVCRLSAVSSIFRSAAGSDDVWNHFLPADFPAGFAAPAGLPTRKQLFFSLVDNPLLINGTLLSFSLERKSGNKCYMMAARALNIVWGHEQRYWHWISLPNTRFGEVAELIMVWWLEITGKINITLLSDDTLYAAYFVFKWNHSPYGFRQPVETSLVLADTESTDNVVQPSMISLMQDSGGEEGQSPVLRRDGWYEVELGQFFKRRGDLGEIEMSLKETKGPYEKKGLIVYGIEIRPVP
As for B3, the binding result in test [5], in test [6] and in test [7] was “binds” each time.

B4: AtPP2-B11-Myc (protein, UniProt Q949S5 1-257)
chain: MNNLPEDCIAKILSLTTPLDVCRLSAVSSIFRSAAGSDDVWNHFLPADFPAGFAAPAGLPTRKQLFFSLVDNPLLINGTLLSFSLERKSGNKCYMMAARALNIVWGHEQRYWHWISLPNTRFGEVAELIMVWWLEITGKINITLLSDDTLYAAYFVFKWNHSPYGFRQPVETSLVLADTESTDNVVQPSMISLMQDSGGEEGQSPVLRRDGWYEVELGQFFKRRGDLGEIEMSLKETKGPYEKKGLIVYGIEIRPVP
Consider B4, for which the binding entry in test [8] was “binds”.
